48 molecules from PubChem BioAssay AID1963576 (National Center for Advancing Translational Sciences (NCATS), 2024) can be followed below.

About 60 (0.1%) of roughly 46,000 compounds were called active. Inconclusive results (about 3%) are left out. The call rests on the fitted dose curve; in most records, active means well fitted inhibition curve with a large enough effect; inconclusive means small, poorly fitted or top-dose-only effect; inactive means no such curve, though single readings can be large or run the other way. The list shows a part of the results.

This assay in a line: Primary qHTS assay for Inhibitors of ovarian cancer metastasis using an organotypic tumor microenvironment (TME) model. Further: nearly all actives have a fitted effect of over 65% in size.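 On activity change, negative = inhibition: plate controls were DMSO wells for no effect and tomatine positive control wells for full effect.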 The conditions noted are these: SKOV3ip1-GFP adhesion/invasion on 3D omental model, fluorescence; series mostly up to 45.8 µM; activity change, negative = inhibition: at the top concentration. Summed up:
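Adhesion/invasion was scored as fixed GFP-labeled SKOV3ip1 cell counts (488/509 nm), normalized to DMSO and tomatine controls. Cancer cells in serum-free medium, with four compound doses (0.36-46 umol/L), sat 2 hr at RT then 16 hr at 37 C on a 48 hr fibroblast/mesothelial/ECM culture.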
(In general: Quantitative high-throughput screening tests each substance at several concentrations.)
For the molecule `COc1ccc(CNC(=O)CN(C)S(=O)(=O)c2ccc3c(c2)c(=O)n(C)c(=O)n3C)cc1`, the “activity change, negative = inhibition” value was inactive: 4.31%.
Still for that read-out and setting: next, `COc1cccc(C(c2sc3nc(-c4ccco4)nn3c2O)N2CCN(C)CC2)c1` (stereo not drawn): inactive: 8.72%.
Take `O=C(Cn1cc(C(=O)c2cccs2)c2ccccc21)Nc1ccc(Br)cc1`: the “activity change, negative = inhibition” value is inactive: -10.1%.
Still for that read-out and setting: next, `CCN(c1cccc(C)c1)S(=O)(=O)c1c(C)nc2sc(C)cn2c1=O`: inactive: 1.73%; `CCN1C(=O)c2ccccc2S(=O)c2ccc(C(=O)NCc3ccc(Cl)cc3)cc21` (stereo not drawn): inactive: -21.9%; `O=C1CCSC2(C(=O)N(Cc3ccc(F)cc3)c3ccccc32)N1c1cccc(F)c1` (stereo not drawn): inactive: -19.4%.
The same measure, in the same setting: next, `CCOC(=O)c1c(-c2ccccc2)oc2ccc(OCc3cccc(Br)c3)cc12`: inactive: -3.13%; `CCCNC(=O)c1c(NC(=O)c2ccccc2)sc2c1CCC(C(C)(C)C)C2` (stereo not drawn): inactive: -14.8%; `Cc1ccc(CSc2nc3ccncc3n2Cc2nc(-c3ccccc3C)oc2C)cc1`: inactive: 44.3%.
With `Cc1cccc(N2C(=O)N(Cc3cccc(C#N)c3)c3ccccc3S2(=O)=O)c1`, the “activity change, negative = inhibition” value is inactive: -8.48%.
Still for that read-out and setting: next, `O=C(Cn1c(=O)n(Cc2ccc(C(=O)NCc3ccc4c(c3)OCO4)cc2)c(=O)c2ccccc21)Nc1ccccc1F`: inactive: 60.4%; `O=C(CCS(=O)(=O)c1cc(Br)cc2c1N(C(=O)C1CC1)CC2)N1CCN(c2cccc(C(F)(F)F)c2)CC1`: inactive: -26.9%; `COc1ccc(CNC(=O)c2cccn2-c2nnc(N3CCCCC3)s2)c(OC)c1`: inactive: 54%.
Regarding `CC(C)c1ccccc1NC(=O)Cn1cnc2c1c(=O)n(C)c(=O)n2C`, the “activity change, negative = inhibition” value is inactive: 2.77%.
On to `COc1ccc(CCNC(=O)CS(=O)(=O)Cc2nc(-c3cccc(Cl)c3)oc2C)cc1OC`, for which the outcome was inactive.
Consider `COc1ccc(-c2cc(C(=O)NCCc3ccccc3)c3c(-c4ccc(Cl)cc4)[nH]nc3n2)cc1`, for which the outcome was inactive.
With `COc1ccc2c(c1)c1c(c(=O)n(-c3cccc(C)c3)c(=O)n1CC(=O)NCc1ccc(C)cc1)n2C`, the “activity change, negative = inhibition” value was inactive: 4.75%.
The same measure, in the same setting: then `CC(C)(C)c1ccc(C(=O)NC(Cc2c[nH]c3ccccc23)C(=O)OCC(=O)c2ccc(Br)cc2)cc1` (stereo not drawn), with inactive: 25.8%.
For the molecule `COc1ccc(-n2ccn(CC(=O)Nc3ccc(C)cc3C)c(=O)c2=O)cc1`, the molecule was classed as inactive.
For `COc1ccc(CNC(=O)c2sc3nc4n(c(=O)c3c2C)CCC4)cc1`, the “activity change, negative = inhibition” value was inactive: 17.2%.
Same read-out and setting: then `CCCc1nnc(NC(=O)C(CC)Sc2nnc3c4ccccc4n(C)c3n2)s1` (stereo not drawn), with inactive: 2.77%; and `CC(C)N(Cc1nc(-c2ccc(Cl)cc2)no1)C(=O)c1ccco1`, with inactive: 11.7%.
For the molecule `COC(=O)c1cc(C)nc2c1c(=O)nc(SCc1ccccc1Cl)n2C1CC1`, the “activity change, negative = inhibition” value is inactive: 7.65%.
Same read-out and setting: next, `Cc1ccc(OCC(=O)Nc2ccc3nn(-c4ccc(C)cc4)nc3c2)cc1`: inactive: 7.32%; `Nc1ncnc2c1ncn2[C@@H]1O[C@H](CO)C[C@@H]1O`: inactive: 8.59%.
With `CCc1cccc(NS(=O)(=O)c2ccc3c(c2)N(CC(=O)OC)C(=O)CS3)c1`, the molecule was called inactive.
For `COc1ccccc1N1CCN(C(=O)CNS(=O)(=O)c2ccc(Br)s2)CC1`, the “activity change, negative = inhibition” value is inactive: -0.828%.
On to `CCOC(=O)N1CCC2(CC1)OC(=O)C(C)=C2C(=O)NCc1ccccc1OC`, for which the “activity change, negative = inhibition” value is inactive: 0.57%.
`Cn1cnc(S(=O)(=O)N2CCC(C(=O)Nc3ccc(Cl)c(C(F)(F)F)c3)CC2)c1`: the “activity change, negative = inhibition” value is inactive: -4.06%.
With `CCc1nnc2c(Nc3ccccc3Br)nc3ccccc3n12`, the “activity change, negative = inhibition” value was inactive: -1.19%.
Same read-out and setting: next, `Cc1nn(CCC(=O)Nc2ccccc2Br)c(=O)c2nn(-c3ccccc3)c(C)c12`: inactive: 10.9%; `Cc1cccc(CCNC(=O)CCS(=O)(=O)c2cc3c(cc2C)NC(=O)CO3)c1`: inactive: -28.7%.
As for `Cc1ccc(NC(=O)CSc2nccn2C2CCCC2)cc1Cl`, the molecule was called inactive.
Turning to `CCOC(=O)c1cc(-c2ccc(C)cc2)n(CC(=O)Nc2ccc(OC)cc2OC)c1C`, the outcome was inactive.
As for `CCCn1cc(S(=O)(=O)c2cccc(Cl)c2)c(=O)c2cc(F)c(N3CCCC3)cc21`, the “activity change, negative = inhibition” value is inactive: -15%.
For the molecule `Cc1cc(Cl)ccc1OCC(=O)N(Cc1ccc(N(C)C)cc1)C1CCS(=O)(=O)C1` (stereo not drawn), the “activity change, negative = inhibition” value was inactive: 2.06%.
Still for that read-out and setting: next, `Cc1cccc(C(C)C)c1NC(=O)c1ccc2c(c1)CCCN2S(C)(=O)=O`: inactive: -6.68%.
With `CCC(C)NC(=O)c1cnn(-c2cccc(F)c2)c1-n1cccc1` (stereo not drawn), the outcome was inactive.
Regarding `CC(=O)N1CCCC1c1nc2ccccc2n1Cc1ccccc1F` (stereo not drawn), the “activity change, negative = inhibition” value was inactive: -5.81%.
The same measure, in the same setting: next, `CCCCCN(C)CCC(O)(P(=O)(O)O)P(=O)(O)O`: inactive: 3.59%.
As to `CCc1cc(=O)[nH]c(SCc2nc(-c3ccc(C(F)(F)F)cc3)no2)n1`, the “activity change, negative = inhibition” value was inactive: 2.1%.
For `Cc1ccc(OCC(=O)Nc2nonc2-c2ccc(Br)cc2)cc1`, the call was inactive.
Same read-out and setting: next, `COc1ccc(N2CCN(C(c3ccc(F)cc3)c3sc4nc(-c5ccco5)nn4c3O)CC2)cc1` (stereo not drawn): “inactive”; `CCN1CCN(C(c2ccc(F)cc2)c2sc3nc(-c4ccco4)nn3c2O)CC1` (stereo not drawn): “inactive”.
For `Cc1ccc(S(=O)(=O)N(CC(=O)NCCSc2ccc(Cl)cc2)c2cccc(Cl)c2)cc1`, the “activity change, negative = inhibition” value was inactive: -3.45%.
For the molecule `CCCC(=O)Nc1ccc2nc(SCC(=O)N3CCOCC3)sc2c1`, the result was inactive.
On the same count and under the same terms, then `O=C(Nc1cccc2c1CCCC2)N1CCOc2ccc(Cl)cc21`, with “inactive”.
Take `CC(C)OCCCNC(=O)CN1C(=O)c2ccccc2Sc2ncccc21`: the “activity change, negative = inhibition” value was inactive: 23%.
